# Measured values as given in publication PMC4336329 (PLoS ONE, 2015).
# In all, about 310,000 compounds went through this assay and about 2,200 (0.71%) showed an effect of 50% or more. The effect is printed as a negative number. This is one part of the list. Where a SMILES comes first, the peptide text is derived from it. The star is where a group is joined. Boc = CC(C)(C)OC(=O)*; OtBu = CC(C)(C)O*
# Target: human ether-à-go-go-related gene (hERG) potassium channel (human, UniProt Q12809)
# Assay: primary screen, population patch clamp on CHO cells stably expressing hERG
# human ether-à-go-go-related gene (hERG) potassium channel, sequence (Q12809 whole entry, looked up): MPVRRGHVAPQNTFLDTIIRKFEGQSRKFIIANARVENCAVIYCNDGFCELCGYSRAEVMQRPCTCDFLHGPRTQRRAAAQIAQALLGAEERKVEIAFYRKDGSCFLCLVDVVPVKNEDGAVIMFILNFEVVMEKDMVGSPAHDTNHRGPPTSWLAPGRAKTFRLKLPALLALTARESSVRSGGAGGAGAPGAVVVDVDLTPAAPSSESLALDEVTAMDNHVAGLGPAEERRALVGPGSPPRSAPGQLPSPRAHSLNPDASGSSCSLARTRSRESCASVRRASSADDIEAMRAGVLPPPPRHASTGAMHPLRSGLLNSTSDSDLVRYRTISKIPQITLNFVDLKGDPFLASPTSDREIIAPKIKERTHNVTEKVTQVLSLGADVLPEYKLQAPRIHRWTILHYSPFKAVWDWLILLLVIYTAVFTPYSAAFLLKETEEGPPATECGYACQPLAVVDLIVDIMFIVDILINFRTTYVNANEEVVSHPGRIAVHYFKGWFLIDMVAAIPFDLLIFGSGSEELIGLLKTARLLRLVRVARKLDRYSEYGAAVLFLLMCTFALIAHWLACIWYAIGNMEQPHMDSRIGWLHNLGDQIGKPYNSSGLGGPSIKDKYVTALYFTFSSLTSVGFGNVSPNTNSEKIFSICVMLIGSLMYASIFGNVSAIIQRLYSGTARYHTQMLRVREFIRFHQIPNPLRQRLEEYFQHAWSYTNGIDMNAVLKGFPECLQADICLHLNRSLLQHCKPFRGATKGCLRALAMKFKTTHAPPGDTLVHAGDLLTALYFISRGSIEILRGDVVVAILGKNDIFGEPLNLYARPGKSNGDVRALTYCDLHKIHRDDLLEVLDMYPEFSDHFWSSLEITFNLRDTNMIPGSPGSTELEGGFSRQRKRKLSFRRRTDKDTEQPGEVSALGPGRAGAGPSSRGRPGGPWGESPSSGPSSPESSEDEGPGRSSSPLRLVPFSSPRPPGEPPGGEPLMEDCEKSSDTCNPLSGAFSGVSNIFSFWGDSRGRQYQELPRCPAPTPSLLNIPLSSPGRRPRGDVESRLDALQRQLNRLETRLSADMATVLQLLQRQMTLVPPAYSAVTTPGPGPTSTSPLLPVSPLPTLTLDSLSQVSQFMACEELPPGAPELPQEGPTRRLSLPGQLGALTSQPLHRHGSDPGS
row,SMILES,"hERG current change (%, negative = inhibition) at 1uM [%]"
1,Cc1cccc(NC(=O)c2cc(Cl)sc2Cl)c1C,7.97
2,CC(C)CC(NS(=O)(=O)c1ccc2[nH]c(=O)c(=O)[nH]c2c1)C(=O)O (stereo not shown),15.7
3,CC(=O)Nc1ccc(S(=O)(=O)NCCc2ccc(S(N)(=O)=O)cc2)cc1,16.4
4,CCOC(=O)c1ccc(N2C(=O)C(CC(=O)NC)N(CCc3ccc(OC)c(OC)c3)C2=S)cc1 (stereo not shown),4.66
5,O=C(CSc1nnc(-c2ccncc2)n1Cc1ccccc1)NC1CCCCC1,2.98
6,CCOC(=O)c1ccc2c(c1)nc(SC/C(O)=C(\C#N)c1nc3ccccc3[nH]1)n2CC,13.4
7,O=C1CC(=O)N(CCc2ccc(F)cc2)C(=O)N1,11.4
8,Cc1ccc(C(=O)N/C(=C/c2cn(-c3ccccc3)nc2-c2ccccc2)C(=O)O)cc1,16.1
9,COc1ccc2c(c1)OC[C@H]1[C@H]2N2C(=O)c3cc(Br)ccc3NC(=O)[C@@]2(C)[C@H]1c1ccccc1,-0.715
10,COc1ccc(CCC(=O)N2C[C@H]3C[C@@H](C2)c2cccc(=O)n2C3)cc1,2.37
11,CCC/C(C)=N/NC(=O)c1ccccc1O,-2.61
12,CCOCCn1c(CN(Cc2ccccc2)Cc2ccccc2)nc2c1c(=O)[nH]c(=O)n2C,-6.06
13,CC1CCN(c2cc(C#N)c(C#N)cc2[N+](=O)[O-])CC1,6.9
14,Cc1ccc(OCC(O)CN2CCc3ccccc3C2)c(C)c1.Cl (stereo not shown),-42.6
15,Cc1cccc(NC(=O)c2c(-c3ccccc3)noc2C)n1,5.95
16,CSc1cccc(NC(N)=S)c1,14.7
17,O=[N+]([O-])c1ccc2[nH]cc(S(=O)(=O)N3CCN(c4cccc(Cl)c4)CC3)c2c1,17.3
18,O=C(O)CSCC(=O)N1CCN(c2nc3cc(Cl)ccc3s2)CC1,4.82
19,COc1ccccc1CC(=O)N1CCN(C(=O)c2ccco2)CC1,6.92
20,Cc1cc(C)cc(Oc2ccc(S(=O)(=O)N3CCN(C)CC3)cn2)c1,15.3
21,COc1ccc(C(=O)NC(=O)NC2(C(Cl)(Cl)Cl)OCCO2)cc1,8.1
22,CN(C)CCNC(=O)c1onc(CSc2ccncc2)c1C(=O)NCCN(C)C,7.02

row,SMILES,"hERG current change (%, negative = inhibition) at 1uM [%]"
1,CC(Sc1nncn1C)C(=O)Nc1ccc(Cl)cn1 (stereo not shown),14
2,COC(=O)[C@@]1(Cc2ccc(OC)cc2)[C@H]2c3cc(C(=O)N4CCCC4)n(C[C@H](O)CO)c3C[C@H]2CN1C(=O)c1ccccc1,6.78
3,CC(NC(=O)C(CC(=O)OC(C)(C)C)NC(=O)OC(C)(C)C)C(N)=O (stereo not shown) (Boc-Asp(OtBu)-Ala-NH2; configuration not given here),7.22
4,CCOc1ccc(NC(=O)[C@H](Cc2ccccc2)NC(=O)C2CCNCC2)cc1,8.62
5,O=C(O)c1ccc(N=NN2CCCC2)cc1,16.8
6,O=C(N/N=C/c1ccc(Cl)cc1)c1n[nH]c2c1CCCC2,7.34
7,CC(C)COc1cccc(C(=O)Nc2ccc(CN3CCOCC3)cc2)c1,7.04
8,O=C(CCCCCn1c(SCc2ccncc2)nc2ccccc2c1=O)NCc1ccco1,-88.4
9,C[C@H](NC(=O)[C@@H]1Cc2ccccc2CN1)C(=O)NC1CCCC1,11.8
10,O=C(Nc1ccccc1Oc1ccccc1)c1ccc(Br)o1,2.85
11,COc1cccc(OC)c1OCCCCN1CCCCC1.O=C(O)C(=O)O,9.21
12,CCC(C)NS(=O)(=O)c1ccc(NC(=O)CCC2CCCCC2)cc1 (stereo not shown),14.9
13,COc1ccc(NC(=O)C(CC(C)C)NS(=O)(=O)c2ccc3c(c2)CCN3C(C)=O)cc1OC (stereo not shown),10.8
14,COc1ccc(-c2noc(CN3CCC(Cc4ccccc4)CC3)n2)cc1,-4.49
15,CC(=O)c1cc(-c2ccccc2)n(CC(=O)Nc2cccc(C)c2)c1C,2.49
16,COc1ccc(S(=O)(=O)N2CCCC2CNC(=O)C(=O)NCCc2ccccc2)cc1 (stereo not shown),10.5
17,Clc1cccc(Nc2nc(-c3ccncc3)nc3ccccc23)c1,-3.17
18,COc1ccc2nc3sc(C(=O)NCc4cccs4)c(N)c3cc2c1,-1.62
19,CCOc1ccccc1OCCCOc1ccc(C)cc1Cl,6.88
20,COC(=O)c1ccc(S(=O)(=O)N2CCCN(Cc3ccc(F)cc3)CC2)n1C,5.98
21,O=C(NCCO)c1cc2ccccc2c(=O)s1,8.76
